# Test results as given in publication PMC4336329 (PLoS ONE, 2015).
# Out of some 310,000 compounds screened, about 14,000 (4.5%) showed an effect of 50% or more. Effects have a minus sign here. The list shows a part of the results.
# Molecular target: human ether-à-go-go-related gene (hERG) potassium channel (human, UniProt Q12809)
# Assay: primary screen, population patch clamp on CHO cells stably expressing hERG
# 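Further: peak tail current of the secondary pulse compared with the same well before compound.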
# Chain of human ether-à-go-go-related gene (hERG) potassium channel (Q12809 whole entry, looked up): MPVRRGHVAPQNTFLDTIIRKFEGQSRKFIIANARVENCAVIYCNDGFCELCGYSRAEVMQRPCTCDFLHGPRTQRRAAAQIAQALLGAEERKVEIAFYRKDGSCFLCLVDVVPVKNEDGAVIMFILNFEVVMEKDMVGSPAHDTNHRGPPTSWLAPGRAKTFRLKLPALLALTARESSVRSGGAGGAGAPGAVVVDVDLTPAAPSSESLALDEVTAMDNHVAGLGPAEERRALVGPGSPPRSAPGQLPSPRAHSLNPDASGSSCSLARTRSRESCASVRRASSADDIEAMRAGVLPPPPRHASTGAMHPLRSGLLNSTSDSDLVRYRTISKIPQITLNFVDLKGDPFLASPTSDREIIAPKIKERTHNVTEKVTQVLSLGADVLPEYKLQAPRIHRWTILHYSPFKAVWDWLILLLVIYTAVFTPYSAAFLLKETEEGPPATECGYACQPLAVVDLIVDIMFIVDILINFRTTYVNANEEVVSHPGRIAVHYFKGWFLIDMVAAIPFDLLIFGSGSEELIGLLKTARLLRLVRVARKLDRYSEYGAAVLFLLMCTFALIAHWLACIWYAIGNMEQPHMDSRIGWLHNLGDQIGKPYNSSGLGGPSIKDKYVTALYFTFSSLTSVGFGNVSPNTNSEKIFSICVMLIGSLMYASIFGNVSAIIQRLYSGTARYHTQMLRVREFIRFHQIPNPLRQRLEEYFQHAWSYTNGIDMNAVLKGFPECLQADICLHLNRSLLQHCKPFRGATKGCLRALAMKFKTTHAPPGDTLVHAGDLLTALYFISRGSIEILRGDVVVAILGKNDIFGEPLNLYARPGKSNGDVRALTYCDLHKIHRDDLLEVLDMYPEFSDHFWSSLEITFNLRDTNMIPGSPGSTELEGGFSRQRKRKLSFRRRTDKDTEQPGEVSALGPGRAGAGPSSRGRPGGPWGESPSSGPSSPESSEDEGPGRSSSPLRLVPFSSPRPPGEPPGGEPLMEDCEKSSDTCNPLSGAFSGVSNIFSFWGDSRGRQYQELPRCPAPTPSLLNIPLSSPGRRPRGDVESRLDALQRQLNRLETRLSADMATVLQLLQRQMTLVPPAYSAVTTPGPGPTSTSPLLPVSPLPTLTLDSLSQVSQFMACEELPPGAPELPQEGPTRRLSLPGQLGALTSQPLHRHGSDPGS
row,SMILES,"hERG current change (%, negative = inhibition) at 10uM"
1,COc1ccc(Cl)cc1S(=O)(=O)NCCCn1ccnc1,9.19%
2,O=C(C1CCCN1S(=O)(=O)c1ccc(Cl)cc1)N1CCCCC1 (stereo not drawn),4.62%
3,CCCN(CCC)C(=O)CCSCCC(=O)N(CCC)CCC,14.5%
4,CC(C)C(OC(=O)CN1C(=O)COc2ccccc21)C(=O)NC1CCCC1 (stereo not drawn),10.4%
5,CCC(C)(C(=O)NC1CCCC1)N(C(=O)CNC(C)=O)c1ccc(C)cc1 (stereo not drawn),6.26%
6,Cc1ccc(NC(=O)Cn2nnc(C(=O)NCc3cccs3)c2N)cc1Cl,19.8%
7,CN(CC(=O)Nc1ccc(N2CCOCC2)cc1)C(=O)CSc1ccc(F)cc1,-7.63%
8,Cc1ccc(NC(=O)CN(C)C(=O)c2ccc3[nH]c4c(c3c2)CC(C)CC4)cc1 (stereo not drawn),8.58%
9,COc1ccccc1NC(=O)CN1CCC(n2nnc3cc(F)ccc32)CC1,-55.4%
10,CCOCCCNC(=O)Cn1cnc2sc(C)c(S(=O)(=O)N3CCN(c4ncccn4)CC3)c2c1=O,10.4%
11,O=C(NC1CCCC1)c1cc2c(=O)n3ccccc3nc2s1,-9.33%
12,CCN(CC)C(=O)Cn1c(=O)n(CCCC(=O)NCc2ccccc2)c(=O)c2sccc21,2.45%
13,Cc1cc(NC(=O)OC2CCCCC2)ccc1[N+](=O)[O-],16.9%
14,O=C(NCCCNC(=O)c1ccccc1Br)c1ccccc1Br,26%
15,CCCCOc1ccc(C(=O)NNC(=O)C2C3C=CC(C3)C2C(=O)O)cc1 (stereo not drawn),3.68%
16,O=C(CCn1c(=O)[nH]c2ccccc2c1=O)NCCSCc1ccccc1,3.64%
17,Cc1c(NC(=O)Nc2ccc(Cl)cc2)c(=O)n(-c2ccccc2)n1C,1.41%
18,COc1ccc(C2=NN(C(=O)CSc3nnc(-c4ccccc4F)o3)C(c3ccco3)C2)cc1 (stereo not drawn),-3.64%
19,Cc1nnsc1C(=O)N1CCC(CO)(Cc2ccccc2Cl)CC1,-3.85%

row,SMILES,"hERG current change (%, negative = inhibition) at 10uM"
1,CCc1ccc(C2CC(c3ccc(C)cc3)Nc3nc(N)nn32)cc1 (stereo not drawn),14.4%
2,COc1cc(OC)cc(C(=O)NCC(=O)N2CCC(C)CC2)c1,17%
3,COC(=O)c1cccc(NC(=O)CN2CCN(Cc3ccccc3)CC2)c1,-16%
4,CCOC(=O)Cc1c(C)nc2c(-c3cccc(Br)c3)c[nH]n2c1=O,-12.9%
5,CC1=CCC2C(=O)N(c3cccc(C(=O)N(C)C4CCCCC4)c3)C(=O)C2C1 (stereo not drawn),-16.3%
6,CC(C)CCNC(=O)COC(=O)/C=C/c1ccc2ccccc2n1,11.3%
7,CC1(C)C(Cl)C(=O)C(C(=O)c2ccccc2)C(=O)C1Cl (stereo not drawn),18.6%
8,CCCC(=O)c1c[nH]c(C(=O)NCc2ccco2)c1,7.74%
9,Cc1ccc(C)n1-c1nc(=S)[nH][nH]1,13.2%
10,COc1ccc(CN2CCCC(C(=O)c3ccc(SC)cc3)C2)cc1Cn1cccn1 (stereo not drawn),-80.3%
11,CCOc1ccc(N=CC2=C(O)CC(c3ccco3)CC2=O)cc1 (stereo not drawn),-14%
12,CC1CC(C)CN(CCOc2ccc(Br)cc2)C1.O=C(O)C(=O)O (stereo not drawn),-60.3%
13,COC(=O)C1=C(C)NC=C([N+](=O)[O-])C1c1ccc(OC)cc1 (stereo not drawn),-11.6%
14,CCC(=O)Nc1ccc(-c2cc3ccccc3oc2=O)cc1,12%
15,COc1ccc(C(C)=O)cc1CN1C(=O)NC2(CCCC2)C1=O,23.9%
16,Nc1nonc1-n1nnc(C(=O)N/N=C/c2cccc(Cl)c2)c1-c1cccs1,3.81%
17,O=C(NCc1ccccc1)c1ccc(S(=O)(=O)Nc2cccc(C(F)(F)F)c2)cc1,-3.04%
18,COc1ccc(C2OC(=O)CC2C(=O)NC(C)C)cc1 (stereo not drawn),5.9%
19,COC(=O)CSc1cc(C(=O)c2nccn2C)c2ccccc2n1,0.879%

row,SMILES,"hERG current change (%, negative = inhibition) at 10uM"
1,O=C(COc1ccc(Br)cc1)NCCO,14.7%
2,CCOC(=O)N1CCN(C(=O)CSC2=NS(=O)(=O)c3cc(F)ccc3N2)CC1,11.6%
3,Cc1ccc(NS(=O)(=O)c2cccc(C(=O)NCCCN3CCCC3=O)c2)cc1,-17.1%
4,O=c1c2c(nc3n1CCCCC3)sc1c(O)cccc12,-19.5%
5,CCOCCCn1c(SCC(=O)N2CCOCC2)nc2ccccc2c1=O,-36%
6,C/C(=N/Nc1ccc(C)cc1)C1(C)N(O)C(C)(C)C(c2ccco2)=[N+]1[O-] (stereo not drawn),-4.66%
7,N/C(=N\OC(=O)c1cc([N+](=O)[O-])ccc1Cl)c1ccccn1,3.99%
8,COC(=O)C(CC(=O)c1ccc(Cl)cc1)c1ccc(C)cc1 (stereo not drawn),1.42%
9,CN(C)CCN(Cc1ccco1)S(=O)(=O)c1csc(C(N)=O)c1,7.29%
10,COC(=O)c1ccccc1NC(=O)Cn1c(=O)n(CCC(=O)NC2CCN(Cc3ccccc3)CC2)c(=O)c2ccccc21,-34.8%
11,c1cncc(COC2CCCN(Cc3nc(-c4cccs4)no3)C2)c1 (stereo not drawn),-2.12%
12,CCCCn1c(N)c(N(CCC(C)C)C(=O)CSc2nncn2-c2ccccc2)c(=O)[nH]c1=O,15.6%
13,C/C=C1\COC(C(=O)NCc2ccncc2)(C(F)(F)F)C=C1C=C1CCCCC1 (stereo not drawn),-27.9%
14,CCn1c(=NC(=O)CS(=O)(=O)c2ccc(F)cc2)sc2cccc(OC)c21,-11%
15,CCOc1ccc(NC(C)C(=O)N/N=C/c2cccs2)cc1 (stereo not drawn),7.02%
16,CC(C)CCN(C(=O)Nc1ccc(Cl)cc1)C1CCN(C(C)C)CC1,-72.1%
17,O=C(c1ccccc1)c1cccc(C(=O)c2ccccc2)c1,-6.3%
18,Cc1ccccc1N1CC(C(=O)Nc2ccc3c(c2)OCO3)CC1=O (stereo not drawn),-13.2%
19,COc1ccccc1NS(=O)(=O)c1cc(NC(=O)c2cccs2)ccc1N1CCOCC1,10.2%
